In patent US20160137746A1, “METHODS FOR TREATING HIGH CARDIOVASCULAR RISK PATIENTS WITH HYPERCHOLESTEROLEMIA” (Sanofi Biotechnology, priority 2014, published 2016):

What was measured:
[1] = test system: high cardiovascular risk patients with hypercholesterolemia; assay: ODYSSEY COMBO I: lipid efficacy of alirocumab vs placebo, add-on to maximally tolerated statin, 52 weeks; format: in vivo, human; conditions: Week 24
Text: (§1) Each of the COMBO studies was randomized, double-blinded, and placebo-controlled.
(§2) The primary efficacy endpoint for each study was the difference between treatment arms in the percent change in LDL-C from baseline to Week 24.
(§3) Apo, apolipoprotein; HDL-C, high-density lipoprotein cholesterol; ITT, intent-to-treat; LDL-C, low-density lipoprotein cholesterol; Lp(a), lipoprotein (a); TG, triglycerides.
COMBO I was a Phase 3, randomized, double-blind, placebo-controlled, parallel-group, multicenter, 52-week study.
After randomization, patients entered a double-blind treatment period of 52 weeks. […] Patients randomized to placebo received a 1 ml SC placebo injection from an identical auto-injector.
To maintain blinding, the patient and investigator were not informed of the Week 8 LDL-C levels (or any lipid values after randomization); continuation or up-titration of dose occurred in an automated and blinded manner.
Primary analyses of efficacy endpoints were conducted using an ITT approach (based on the ITT population defined above), including all lipid data, regardless of whether the patient was continuing therapy or not. […]
With regards to the primary efficacy analysis (ITT approach), the percent change in calculated LDL-C from baseline to Week 24 was analyzed using a mixed-effect model with repeated measures (MMRM) approach. […]

[2] = test system: high cardiovascular risk patients with hypercholesterolemia; assay: ODYSSEY COMBO II: lipid efficacy of alirocumab vs ezetimibe, add-on to maximally tolerated statin; format: in vivo, human; conditions: Week 24
Text: as §1, §2, §3
COMBO II was a Phase 3, randomized, double-blind, active-controlled, parallel-group, multinational 104-week study. The study enrolled high-risk patients with uncontrolled hypercholesterolemia on stable, maximally tolerated daily statin therapy. Unlike COMBO I, with a placebo arm, COMBO II incorporated an active-treatment arm (ezetimibe) with double-dummy design (FIG. 1B) and patients were not allowed to receive any other lipid lowering therapies besides statin and their randomized treatment.
After randomization, patients entered a double-blind, double-dummy treatment period of 104 weeks. […]
With regards to the primary efficacy analysis (ITT approach), the percent change in calculated LDL-C from baseline to Week 24 was analyzed using a mixed-effect model with repeated measures (MMRM) approach.

Row | Molecule | Proportion of patients achieving LDL-C <70 mg/dL (<1.81 mmol/L) ([1]; ITT) [%] | Proportion of patients achieving LDL-C <70 mg/dL (<1.81 mmol/L) ([1]; On-treatment) [%] | Proportion of patients reaching calculated LDL-C <70 mg/dL (1.81 mmol/L), combined estimate [2] [%]
1 | Alirocumab: human anti-PCSK9 antibody; HCVR SEQ ID NO:1, LCVR SEQ ID NO:6; CDRs SEQ ID NOs 2/3/4/7/8/10 | 75.0 | 77.5 | 77
2 | O=C1[C@H](CC[C@H](O)c2ccc(F)cc2)[C@@H](c2ccc(O)cc2)N1c1ccc(F)cc1 [Ezetimibe, ezetimibe, reference compound] |  |  | 45.6
